This is one part of the list. Values were computed here from the reads of four pooled replicates and scatter widely.
target: T1, Pho4 (S. cerevisiae) (UniProt P07270); assay: relative binding free energy (BET-seq); higher = weaker binding; settings: reference: library average
T1 sequence: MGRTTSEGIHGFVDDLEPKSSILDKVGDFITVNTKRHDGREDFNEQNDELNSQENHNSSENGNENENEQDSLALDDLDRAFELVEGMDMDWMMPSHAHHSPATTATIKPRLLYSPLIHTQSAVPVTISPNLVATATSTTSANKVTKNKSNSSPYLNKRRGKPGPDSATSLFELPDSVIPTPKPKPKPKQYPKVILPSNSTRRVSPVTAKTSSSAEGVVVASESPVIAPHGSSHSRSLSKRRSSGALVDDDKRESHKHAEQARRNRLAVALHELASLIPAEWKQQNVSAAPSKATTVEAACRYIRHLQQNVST

Sequence | relative binding free energy [kcal/mol]
CGAAGCACGTGGGTGC | -0.14
AAATTCACGTGTATTA | 0.27
AGTCGCACGTGAATGT | 0.14
CGGGTCACGTGATTTG | 0.26
TGAGGCACGTGTTAGA | -0.05
GTGTCCACGTGTGTAT | 0.18
TAAGACACGTGTTATG | -0.07
ATGCACACGTGTTGTG | -0.11
TGCGGCACGTGGTAGG | -0.17
TAGCGCACGTGTGTGA | 0
CATGGCACGTGGGCAT | -0.24
GGTAACACGTGTGAAG | 0.2
GGATTCACGTGTCGGA | 0.35
TGCGACACGTGTGTTG | -0.08
GTTGTCACGTGGCTAA | 0.12
GGGTACACGTGATTGT | 0.11
TTATGCACGTGGTCAG | -0.28
TGTTTCACGTGGAGTA | 0.24
ATATGCACGTGTTTTA | -0.04
CTGTGCACGTGAGGTA | 0.1
CTTAGCACGTGTCTGG | -0.09
TAGTTCACGTGGGACT | 0.26
TACCGCACGTGGGGTG | -0.18

Sequence | relative binding free energy [kcal/mol]
CTTTTCACGTGTGGCA | 0.29
TTATGCACGTGTGGAA | 0.03
CGAGACACGTGGTGGA | 0.03
CGTTCCACGTGTTGTG | 0.11
TGTATCACGTGCTATG | -0.08
AGGGGCACGTGCGGAC | -0.21
ATGTACACGTGAAGGT | 0.33
GTGAACACGTGGAGTA | 0.04
GGGTTCACGTGTAATC | 0.62
TGTAACACGTGGAATT | 0.13
TTTTGCACGTGCTCAG | -0.07
GGCATCACGTGTGTTT | 0.17
TAAACCACGTGGTGGT | -0.19
TGGGGCACGTGGATGA | -0.08
TTTGTCACGTGAGGGC | 0.24
GGAGGCACGTGAAAGG | 0.23
TTTCGCACGTGATATA | -0.02
ATGTTCACGTGGAAAG | 0.3
AAGGGCACGTGGAGTC | -0.12
AGTCTCACGTGAGTGG | 0.22
GCTTTCACGTGTGGTA | 0.27
GGAGTCACGTGGTTCG | 0.1
GTCGTCACGTGATCTT | 0.49

Sequence | relative binding free energy [kcal/mol]
ATTAGCACGTGTAGGC | 0.06
GATAACACGTGGAGGT | 0.03
AGAGCCACGTGGGATG | 0.02
ATGAGCACGTGTGTGG | -0.03
AGGTACACGTGTGAAT | 0.29
GTAATCACGTGGGTCT | 0.11
GCGTTCACGTGGGATG | 0.37
GACTTCACGTGAGGGT | 0.35
CTTATCACGTGAAGTG | 0.2
AGTAGCACGTGGGGCC | -0.25
GTATGCACGTGTTAGA | 0.11
TTCGGCACGTGGGAAG | -0.13
GCTTTCACGTGGTTAT | 0.22
GAGCGCACGTGCTGGT | 0.04
GCAGGCACGTGGGCTG | -0.25
TAATTCACGTGTGGTT | 0.38
GTCATCACGTGGTCGT | 0.09
TTAGTCACGTGTTTTC | 0.18
TGTGTCACGTGGCCAT | -0.07
CAGTACACGTGGTATG | -0.04
ATTGACACGTGGTCTT | -0.17
AAATTCACGTGGGCGG | 0.21
AAGGACACGTGAGGAG | 0.42

Sequence | relative binding free energy [kcal/mol]
GGGTCCACGTGTAGGG | 0.16
GGCGACACGTGTATGG | 0.07
TGGAACACGTGTTTAT | 0.06
CTTTGCACGTGGCGGA | -0.08
TAAAGCACGTGTGAGT | -0.18
GGGGGCACGTGTTAGT | 0.02
TGGGGCACGTGATACG | -0.12
AGTGACACGTGTTTTA | 0.05
AGTGTCACGTGGACAG | -0.04
TTTTCCACGTGTTTCG | 0.08
TGCAACACGTGGGAAG | -0.01
GCGTTCACGTGCGTGG | 0.2
TAGTCCACGTGGTTTT | 0
CATGGCACGTGTAGCG | 0.02
TCTTGCACGTGGGGGC | -0.19
TAGTACACGTGGACGT | 0.14
GTTCGCACGTGGTTGA | 0.02
GTACGCACGTGGGGCT | -0.16
GGCTGCACGTGGGTTG | -0.04
CTGTGCACGTGGGGGC | -0.14
TATAACACGTGTCTTG | 0.14
AGTTTCACGTGGTCTA | 0.08
TGTGCCACGTGTTTTG | -0.01

Sequence | relative binding free energy [kcal/mol]
AGTTTCACGTGATTTA | 0.29
TGTGACACGTGCAGGT | -0.13
GGCAGCACGTGGATGG | -0.04
TGGACCACGTGGTGGT | -0.12
GTGTACACGTGCTGGG | 0.09
TAAGACACGTGGGTAT | -0.13
AAAGTCACGTGAGGGA | 0.3
TGGGGCACGTGGCGTT | -0.24
TTAGACACGTGTAGGT | 0.07
AGTGCCACGTGTTGGT | -0.07
ATATGCACGTGCGTTT | -0.14
AGTTCCACGTGGTGGA | -0.01
TGGTACACGTGCGTTA | -0.1
TCATTCACGTGATATT | 0.32
TTTTGCACGTGCGGTC | 0.09
GTTGTCACGTGTGTTC | 0.21
TGTTTCACGTGCCGTA | 0.22
TGTGTCACGTGTGTCG | 0.21
ATTAGCACGTGTCTGT | -0.07
ATGATCACGTGGAAGT | 0.13
GTCGACACGTGGGTGG | -0.09
GGGCGCACGTGTGCGA | -0.07
AAATCCACGTGGTGGT | 0

— the BET-seq Pho4 binding data (Le et al. 2018)
